According to PubChem BioAssay AID2451 (National Center for Advancing Translational Sciences (NCATS), 2010):
About 2,100 (0.72%) of roughly 290,000 compounds were called active. The inconclusive results got no clear call from the source; some entries with a clear call stand among them for comparison. The call rests on the fitted dose curve; in most records, active means well fitted inhibition curve with a large enough effect; inconclusive means small, poorly fitted or top-dose-only effect, or effect the other way; inactive means flat fitted curve, though single readings scatter. Potencies beside an inconclusive call are fits to weak or partial responses and may not hold up. More than one record can exist for a structure, and the calls need not agree.

biological target: Fructose-bisphosphate aldolase (Giardia intestinalis (strain ATCC 50803 / WB clone C6)) (UniProt A8B2U2); assay: qHTS Assay for Inhibitors of Fructose-1,6-bisphosphate Aldolase from Giardia Lamblia; conditions: purified Giardia FBPA; series mostly up to 59.6 µM; further: nearly all actives have a fitted effect of over 55% in size
Method in brief: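 40 nM FBPA preincubated 10 min at RT with compound (up to 57.5 uM final), then substrate plus GAPDH/TPI/NAD/arsenate coupling and diaphorase/resazurin added. Fluorescence read after 20 min at RT, 525/598 nm.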
Potency means the concentration at half of the fitted maximal effect; tags describe the fitted curve by direction and shape.

UniProt A8B2U2, sequence (A8B2U2 whole entry, looked up): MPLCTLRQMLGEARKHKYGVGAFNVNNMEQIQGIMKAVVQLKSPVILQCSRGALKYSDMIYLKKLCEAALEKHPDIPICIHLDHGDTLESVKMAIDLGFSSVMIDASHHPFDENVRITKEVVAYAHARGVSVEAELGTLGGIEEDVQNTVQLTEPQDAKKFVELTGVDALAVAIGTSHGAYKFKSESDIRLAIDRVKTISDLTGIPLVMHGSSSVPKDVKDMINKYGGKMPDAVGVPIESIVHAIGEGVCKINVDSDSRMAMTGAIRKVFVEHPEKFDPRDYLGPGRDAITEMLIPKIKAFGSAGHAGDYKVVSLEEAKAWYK

| SMILES | Potency |
| --- | --- |
| Cc1ncoc1C(=O)Nc1ncc([N+](=O)[O-])s1 | active: 17.7 µM |
| CC(C)C[C@H](NC(=O)c1[nH]cnc1C(=O)N[C@@H](C)c1ccccc1)C(=O)OC(C)(C)C | inconclusive: 9.98 µM [inhibitor, partial curve] |
| COCCNC(=S)N/N=C/c1ccc(-c2ccc([N+](=O)[O-])cc2)o1 | inconclusive: 19.9 µM [inhibitor, partial curve] |
| Nc1ccc2cn[nH]c2c1 | inconclusive: 7.92 µM [inhibitor, partial curve] |
| O=P(c1ccccc1)(c1ccccc1)C(O)c1ccccn1 (stereo unspecified) | inconclusive: 14.1 µM [inhibitor, partial curve] |
| FC(F)(F)c1ccc(CN2C[C@@H]3C(c4ccc(Cl)nc4)C4(c5ccccc5)CC3(C4)[C@H]2c2ccccc2)cc1 (stereo partly specified) | inactive |
| CCN(CC)C(=S)SSC(=S)N(CC)CC | active: 17.7 µM |
| COC(=O)c1ccc(N2NC(=O)/C(=C/c3cc(OC)c(O)c(OC)c3)C2=O)cc1 | inconclusive: 14.1 µM [inhibitor, partial curve] |
| CN1CCC2(CC1)C1CN(C)CC=C1C(C#N)=C(N)C2(C#N)C#N (stereo unspecified) | inconclusive: 19.9 µM [inhibitor, partial curve] |
| COc1ccc(/C=C/C(=O)C2C(=O)C=C(C)OC2=O)cc1O (stereo unspecified) | inconclusive: 15.8 µM [inhibitor, single point] |
| N#C/C(=C\c1ccc(N2CCOCC2)o1)c1ccccc1 | inconclusive: 44.6 µM [inhibitor, single point] |
| COc1ccc(Nc2nnc(SC(C(=O)Nc3ccc(OC)c(Cl)c3)c3ccccc3)s2)cc1 (stereo unspecified) | inactive |
| Cc1cc(C)c(OCCN2CCOCC2)c(Cl)c1 | inconclusive: 28.2 µM [inhibitor, partial curve] |
| O=C(CCCCCN1C(=O)c2cccc3cccc(c23)C1=O)NO | inactive |
| COc1ccc(N2CCN(C(c3cc4cc(C)ccc4[nH]c3=O)c3nnnn3Cc3ccccc3)CC2)cc1 (stereo unspecified) | inconclusive: 19.9 µM [inhibitor, partial curve] |
| O=C(Nc1ccc(Br)cc1)N1CCCC(O)C1 (stereo unspecified) | inactive |
| CC(C)n1c(N2CCN(CC(=O)Nc3ccc4c(c3)OCCO4)CC2)nc2ccccc21 | inconclusive: 22.4 µM [activator, partial curve] |
| Cc1cc(/C=C2\C(=N)N3N=C(S(C)(=O)=O)SC3=NC2=O)c(C)n1Cc1ccccc1 | inconclusive: 15.8 µM [activator, single point] |
| CCCCS(=O)(=O)Nc1ccc2cn[nH]c2c1 | inconclusive: 15.8 µM [inhibitor, partial curve] |
| C#CCNC(=O)C1=C[C@H](c2ccc(C(F)(F)F)cc2)C[C@H](OCc2ccc(CO)cc2)O1 | inconclusive: 22.3 µM [inhibitor, single point] |
| Cc1cc2nc3ccc(=[N+](C)C)cc-3sc2cc1N | inconclusive: 22.3 µM [inhibitor, partial curve] |
| C=CCNC(=S)N1CCC(C(=O)c2ccc(F)cc2)CC1 | inconclusive: 5.01 µM [inhibitor, full curve] |
| CC(=O)Nc1nc(C)c(-c2nc3ccc([N+](=O)[O-])cc3[nH]2)s1 | inactive |

| SMILES | Potency |
| --- | --- |
| Cc1ccc2oc(-c3ccc(NC(=O)CC(C)C)cc3)nc2c1 | inactive |
| COc1ccc(S(=O)(=O)N(CC(=O)NCc2ccccn2)c2ccc(Cl)cc2)cc1 | inconclusive: 12.6 µM [activator, partial curve] |
| OC(CNCCc1ccc(C(F)(F)F)cc1)COC(c1ccccc1)c1ccccc1 (stereo unspecified) | inconclusive: 14.1 µM [inhibitor, partial curve] |
| CNc1nc(N)c(C(=O)Nc2cc(C)on2)s1 | inconclusive: 19.9 µM [inhibitor, partial curve] |
| CCOC(=O)c1c(C)[nH]c(N=Nc2ccccc2)c1C | inactive |
| COc1ccc(OC)c2c1cc(C(=O)N[C@H](C(=O)N1CCC[C@H]1C(=O)O)C(C)C)n2C | inconclusive: 20 µM [inhibitor, partial curve] |
| COc1ccc(C2c3[nH]c4ccccc4c3C[C@H]3C(=O)N(CC(C)C)CC(=O)N23)c(OC)c1 (stereo partly specified) | inactive |
| CC(=Nc1cccc(O)c1)c1sc2ccccc2c1O | inactive |
| Cc1nnc(N/N=C/c2cccc(OCc3ccc(Cl)c(Cl)c3)c2)n1N | active: 17.7 µM |
| CNC(=S)N(C1=NCC(c2ccc([N+](=O)[O-])cc2)S1)c1ccccc1 (stereo unspecified) | inactive |
| O=C1CC2(CCCC2)CC(=O)N1c1ccccc1 | inactive |
| N#CC1=C(N)Oc2c(O)cc3ccccc3c2C1c1ccsc1 (stereo unspecified) | active: 17.7 µM |
| CCN1CC2C3CCC(C)(O3)C2C1 (stereo unspecified) | inconclusive: 17.7 µM [inhibitor, single point] |
| Cc1ccc2c(COC(=O)c3c(C)noc3C)cc(=O)oc2c1 | inactive |
| CN1CCc2c(sc(/N=C/c3cccs3)c2C(N)=O)C1 | inconclusive: 15.8 µM [inhibitor, single point] |
| COc1ccc(C2CC(C)=C(C#N)S(=O)(=O)C2C#N)cc1 (stereo unspecified) | inconclusive: 6.29 µM [inhibitor, partial curve] |
| COc1cc(C(=O)NNC(=S)NC(=O)c2ccccc2C)cc(OC)c1OC | inconclusive: 15.8 µM [activator, partial curve] |
| Cc1cc(SCC(=O)N/N=C/c2ccco2)nc2ccccc12 | inconclusive: 19.9 µM [inhibitor, partial curve] |
| CCc1nnc(NC(=O)CN2CCN(Cc3cccc(Cl)c3)CC2)s1 | inconclusive: 2.24 µM [inhibitor, partial curve] |
| O=[N+]([O-])c1ccccc1OCCCn1cnc2ccccc21 | inconclusive: 15.8 µM [inhibitor, partial curve] |
| Cc1cc(C)nc(NNC2=CC(=O)CC(C)(C)C2)n1 | inconclusive: 14.1 µM [inhibitor, partial curve] |
| Cc1ccc2c(c1)c1c3n2CC(=C2C(=O)OC(C)(C)OC2=O)NC3CCC1 (stereo unspecified) | inconclusive: 19.9 µM [inhibitor, partial curve] |
| CCNC(=O)c1c(N)sc2c1CCCCC2 | inconclusive: 15.8 µM [inhibitor, single point] |
